From US4416899A, “Antibiotic BMG162-aF2, a process for production thereof, and antitumor drug containing said new antibiotic as active ingredient” (priority 1980, dated 1983) come the findings set out here.

Molecules are shown by their SMILES. Values after ≈ are worked out from the molar mass of the structure shown.

The test deals with Bacillus anthracis. The test can be described thus: microbe, parasite or virus in culture. The format is cell-based. The following applies: read-out: Minimum inhibitory concentration.

Regarding `N=C(N)NCCCCC(O)CC(=O)NC(O)C(=O)NCCCCNCCCN` (stereo not shown) [BMG162-aF2], the MIC came out at 25 µg/mL (≈ 62 µM).
